# Reference: the supplement of paper PMC3334620
# Whole data set: some 33,000 sequences, median “E-score (-0.5 to 0.5)” near -0.043, cut for the highest 2% near 0.37. The list shows a part of the results.
# Biological target: T1, Upc2 (UniProt Q12151)
# T1 sequence: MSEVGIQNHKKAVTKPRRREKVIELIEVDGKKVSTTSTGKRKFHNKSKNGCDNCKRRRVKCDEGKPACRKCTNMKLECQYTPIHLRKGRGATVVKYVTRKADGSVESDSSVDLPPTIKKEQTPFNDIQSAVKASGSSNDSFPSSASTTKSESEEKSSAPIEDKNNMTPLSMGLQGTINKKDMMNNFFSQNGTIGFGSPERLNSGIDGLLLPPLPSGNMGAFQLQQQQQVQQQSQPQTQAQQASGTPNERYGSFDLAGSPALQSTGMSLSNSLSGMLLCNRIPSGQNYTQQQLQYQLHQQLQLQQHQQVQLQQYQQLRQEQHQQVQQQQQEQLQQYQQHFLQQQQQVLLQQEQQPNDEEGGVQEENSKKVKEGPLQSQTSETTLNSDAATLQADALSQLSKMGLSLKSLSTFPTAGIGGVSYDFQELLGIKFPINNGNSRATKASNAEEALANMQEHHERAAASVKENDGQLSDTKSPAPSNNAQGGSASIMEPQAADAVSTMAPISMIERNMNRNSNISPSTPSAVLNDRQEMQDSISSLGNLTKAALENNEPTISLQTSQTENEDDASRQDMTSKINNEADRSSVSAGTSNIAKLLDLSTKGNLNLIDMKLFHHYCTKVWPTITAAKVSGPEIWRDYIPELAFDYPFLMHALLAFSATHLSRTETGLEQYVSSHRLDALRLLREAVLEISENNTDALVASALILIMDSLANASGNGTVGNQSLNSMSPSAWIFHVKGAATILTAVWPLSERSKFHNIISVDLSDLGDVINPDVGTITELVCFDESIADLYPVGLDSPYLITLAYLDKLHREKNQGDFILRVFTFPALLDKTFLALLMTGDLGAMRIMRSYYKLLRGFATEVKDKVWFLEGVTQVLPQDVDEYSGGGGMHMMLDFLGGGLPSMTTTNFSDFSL
# Test: PBM E-score (8-mer binding enrichment) (E-score (-0.5 to 0.5)); higher = stronger / more preferred TF binding; most listed sequences are background and not binding sites
# Conditions: protein concentration: 200 nM; construct: GST-full length
# How it was run: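 Yeast transcription factors, full-length or as DNA-binding domains, were expressed with a GST tag using PURExpress in vitro transcription/translation. At about 100-200 nM they were applied to universal all-10-mer Agilent arrays, double-stranded by primer extension on fresh or once-stripped slides. Fluorescent anti-GST detected bound protein, and masliner normalised the scans. E-scores for ungapped eight-base words, pooled with reverse complements, came from the Universal PBM Analysis Suite.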
row,Sequence,PBM E-score
1,ATGGCTAC,0.151
2,AAGAAAAT,0.15
3,CAGGTACG,0.396
4,CGCAATCA,-0.182
5,CTATAAGC,0.0678
6,CAGTGAAC,0.019
7,CAGGTGTA,-0.00306
8,GCGCGGAA,-0.0233
9,GCTGCGTA,0.22
10,GTCCAATA,-0.00904
11,GAAGGGCC,-0.15
12,GAGACGCA,-0.0494
13,GCCTGCGC,-0.271
14,ACACCGGA,-0.0917
15,GACGTAAA,0.228
16,GTAACCAA,0.041
17,ACTTTCAA,-0.00015
18,GATAAGAC,0.0241
19,ACTTCGTG,0.0872
20,CGAAAATC,0.146
21,TATCGTCA,0.0773
22,ACGCGGCT,0.163

row,Sequence,PBM E-score
1,AGCTACAT,-0.0994
2,AGTACCTG,-0.0657
3,CCATTCTA,-0.068
4,TCAAGCAA,-0.139
5,AGCCGACG,0.00221
6,CTTCGGGA,0.058
7,CCGCGTGA,-0.00343
8,CGAGATCA,0.203
9,CCACTCCA,-0.12
10,CATTGCCA,0.00823
11,AACCCCAA,-0.139
12,ATTCCAGG,-0.316
13,ACCTGTAC,0.242
14,CCCGTCCA,-0.00605
15,AGACCTCG,0.213
16,GATAAGTA,0.0858
17,CCATAGTC,-0.323
18,GAATGGTC,-0.0557
19,ACAATGGT,-0.315
20,AAGCGATT,0.189
21,CGAACGAC,0.401
22,CCTGACAA,-0.108

row,Sequence,PBM E-score
1,AGGCTGTC,-0.015
2,TACGGCAA,0.327
3,CCAGGGTC,-0.103
4,GATCCGCA,-0.165
5,CCCGCATC,0.00411
6,AGTAAGCA,-0.157
7,CAACCTTC,-0.138
8,GCTTTTCC,0.0253
9,TCTCGCAA,0.148
10,GAGCATCA,-0.142
11,TCTGATCA,-0.317
12,GAGGGCTA,-0.178
13,AGCTCCTA,-0.154
14,CTATGCGC,-0.0498
15,AGCCGTCC,-0.129
16,ACATCCAC,0.101
17,AAAAATAG,-0.0252
18,AATGGTAC,0.105
19,GGTGCTGA,-0.218
20,GAGTGTTA,-0.0834
21,ACTTTGAT,-0.225
22,AAAGTACA,0.13

row,Sequence,PBM E-score
1,ACCGGATG,0.0233
2,AGGATGAT,-0.0716
3,CGACGCGA,0.0689
4,GGCATCCC,-0.283
5,GGCTCAGA,-0.0243
6,CCGGGTCG,0.124
7,CGGCAAGA,-0.0769
8,ACGGTGCT,0.158
9,GGCACTAA,-0.185
10,CTTGTAGC,-0.194
11,ACGCGGAC,-0.0315
12,GCTGGTAC,0.0549
13,CCACGCCA,-0.196
14,GTCGTAGA,0.386
15,AGCCCCCT,-0.0968
16,CATCCAGA,-0.137
17,CCACACAA,-0.164
18,CGTGGTGA,-0.184
19,ACTAGCAA,-0.0127
20,CGGCGCGA,0.0234
